# Test results from article PMC5892938.
# The list shows a part of the results. At the low end of the ranking, values are background and their order means little.
# Target: GST-SBP-SLBP (stem-loop binding protein) (UniProt Q14493)
# Assay: targeted RNA Bind-n-Seq;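 further: DESeq read counts versus GST-SBP nonspecific binding control pulldown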
# Settings: RBNS binding buffer: 25 mM Tris pH 7.5, 150 mM KCl, 3 mM MgCl2, 0.1% Tween, 0.5 mg/mL BSA, 1 mM DTT; 27 nM protein, 750 pM RNA pool; temperature not stated; high values mean tight binding
row,Sequence,binding signal (log2 fold change)
1,GGUCACGUCUCAAUCAACUCAUUUCCAGGAGUUUACUCCUGUAAUCUCAACAGCUCGCAGUCAAG,-0.0425
2,GGUCACGUCUCAAUCAACUCUUCCCCAGGAGUUUACUCCUGUAAUUUCAACAGCUCGCAGUCAAG,0.117
3,GGUCACGUCUCAAUCAACUCAUCUCCAGGAGUUUUCUCCUGCUUAUUCAACAGCUCGCAGUCAAG,-0.0887
4,GGUCACGUCUCAAUCAACUCAGUUUCAGGAGUUUCCUCCUGCUUUUUCAACAGCUCGCAGUCAAG,0.0447
5,GGUCACGUCUCAAUCAACUCAUCCUCAGGAGUUUUCUCCUGCAUAUUCAACAGCUCGCAGUCAAG,0.138
6,GGUCACGUCUCAAUCAACUCAUCUUCAGGAGUUUACUCCUGUUUUUUCAACAGCUCGCAGUCAAG,-0.0386
7,GGUCACGUCUCAAUCAACUCAAUCGAGGGGGGGAAAACCCCUUUGCCCUCACAUUCAACAGCUCGCAGUCAAG,-0.631
8,GGUCACGUCUCAAUCAACUCUUCGUCAGGAGUUUCCUCCUGCUUAUUCAACAGCUCGCAGUCAAG,-0.103
9,GGUCACGUCUCAAUCAACUCCACAGAGGGGGGGAAAACCCCUUUACCCUCCUACUCAACAGCUCGCAGUCAAG,-0.326
10,GGUCACGUCUCAAUCAACUCGUUUUCAGGAGUUUACUCCUGUAUUUUCAACAGCUCGCAGUCAAG,-0.0345
11,GGUCACGUCUCAAUCAACUCAAUCCCAGGAGUUUUCUCCUGUUAUUUCAACAGCUCGCAGUCAAG,0.148
12,GGUCACGUCUCAAUCAACUCCAAUGAGGGGGGGAAAACCCCUUUACCCUCCAUAUCAACAGCUCGCAGUCAAG,0.0126
13,GGUCACGUCUCAAUCAACUCAUUAGAGGGGGGGAAAACCCCUUUGCCCUCAUCUUCAACAGCUCGCAGUCAAG,0.356
14,GGUCACGUCUCAAUCAACUCAUUCCCCAGGGAAAACCCUGGCUAUCUCAACAGCUCGCAGUCAAG,-0.261
15,GGUCACGUCUCAAUCAACUCUUCAGAGGGGGGGAAAACCCCUUUACCCUCACACUCAACAGCUCGCAGUCAAG,0.0521
16,GGUCACGUCUCAAUCAACUCCACGGAGGGGGGGAAAACCCCUUUACCCUCACUAUCAACAGCUCGCAGUCAAG,-0.169
17,GGUCACGUCUCAAUCAACUCUUCCUCCAGGGAAAUCCCUGGCAAUGUCAACAGCUCGCAGUCAAG,0.155
18,GGUCACGUCUCAAUCAACUCAUCCCCAGGAGUUUACUCCUGCUUAUUCAACAGCUCGCAGUCAAG,0.0137
19,GGUCACGUCUCAAUCAACUCAACUCCCAGGGAAAUCCCUGGCAUAUUCAACAGCUCGCAGUCAAG,-0.11
20,GGUCACGUCUCAAUCAACUCUAUGUCAGGAGUUUCCUCCUGCUAAUUCAACAGCUCGCAGUCAAG,-0.0221
21,GGUCACGUCUCAAUCAACUCUAGUCCCAGGGAAAGCCCUGGUAAAUUCAACAGCUCGCAGUCAAG,-0.182
22,GGUCACGUCUCAAUCAACUCAGUCUCCAGGGAAAACCCUGGCUAAUUCAACAGCUCGCAGUCAAG,-0.171
23,GGUCACGUCUCAAUCAACUCUAUCGCAGGAGUUUACUCCUGGUAUCUCAACAGCUCGCAGUCAAG,0.0243
24,GGUCACGUCUCAAUCAACUCAUUCUCAGGAGUUUGCUCCUGCUUUUUCAACAGCUCGCAGUCAAG,-0.229

row,Sequence,binding signal (log2 fold change)
1,GGUCACGUCUCAAUCAACUCUUCCCCAGGAGUUUUCUCCUGUUAACUCAACAGCUCGCAGUCAAG,-0.181
2,GGUCACGUCUCAAUCAACUCUUCUCCCAGGGAAAGCCCUGGUUAUUUCAACAGCUCGCAGUCAAG,0.19
3,GGUCACGUCUCAAUCAACUCUUCGUCAGGAGUUUUCUCCUGUUUUCUCAACAGCUCGCAGUCAAG,0.19
4,GGUCACGUCUCAAUCAACUCGUCUUCAGGAGUUUCCUCCUGCUUUUUCAACAGCUCGCAGUCAAG,0.00217
5,GGUCACGUCUCAAUCAACUCUUCUCCAGGAGUUUUCUCCUGUUUACUCAACAGCUCGCAGUCAAG,0.296
6,GGUCACGUCUCAAUCAACUCAUCUUCCAGGGAAAGCCCUGGUAAAUUCAACAGCUCGCAGUCAAG,-0.163
7,GGUCACGUCUCAAUCAACUCUCAAGAGGGGGGGAAAACCCCUUUUCCCUCAACAUCAACAGCUCGCAGUCAAG,0.046
8,GGUCACGUCUCAAUCAACUCUAUUCCAGGAGUUUCCUCCUGCUUACUCAACAGCUCGCAGUCAAG,0.112
9,GGUCACGUCUCAAUCAACUCUAUCUCAGGAGUUUCCUCCUGCAAACUCAACAGCUCGCAGUCAAG,0.2
10,GGUCACGUCUCAAUCAACUCAUUCCCAGGAGUUUACUCCUGUUUUCUCAACAGCUCGCAGUCAAG,0.285
11,GGUCACGUCUCAAUCAACUCAACUUCCAGGGAAACCCCUGGCAAUUUCAACAGCUCGCAGUCAAG,-0.136
12,GGUCACGUCUCAAUCAACUCUAUUUCCAGGGAAAUCCCUGGCUUUCUCAACAGCUCGCAGUCAAG,0.165
13,GGUCACGUCUCAAUCAACUCUUCCCCCAGGGAAAGCCCUGGUAAUUUCAACAGCUCGCAGUCAAG,-0.0379
14,GGUCACGUCUCAAUCAACUCAUCCUCCAGGGAAAUCCCUGGUUAACUCAACAGCUCGCAGUCAAG,0.0732
15,GGUCACGUCUCAAUCAACUCUUUCCCAGGAGUUUCCUCCUGUAAUGUCAACAGCUCGCAGUCAAG,0.00484
16,GGUCACGUCUCAAUCAACUCUAUCUCAGGAGUUUUCUCCUGUAUUCUCAACAGCUCGCAGUCAAG,-0.0784
17,GGUCACGUCUCAAUCAACUCAAUUCCCAGGGAAACCCCUGGUUAACUCAACAGCUCGCAGUCAAG,-0.0359
18,GGUCACGUCUCAAUCAACUCUUUCUCAGGAGUUUUCUCCUGCUAAUUCAACAGCUCGCAGUCAAG,-0.0842
19,GGUCACGUCUCAAUCAACUCAUUCCCAGGAGUUUACUCCUGUUUAGUCAACAGCUCGCAGUCAAG,-0.0435
20,GGUCACGUCUCAAUCAACUCCUUAGAGGGGGGGAAAACCCCUUUACCCUCACAUUCAACAGCUCGCAGUCAAG,-0.154
21,GGUCACGUCUCAAUCAACUCUUCCUCAGGAGUUUACUCCUGUUAACUCAACAGCUCGCAGUCAAG,0.0496
22,GGUCACGUCUCAAUCAACUCGUCUUCAGGAGUUUCCUCCUGUAUUUUCAACAGCUCGCAGUCAAG,0.0981
23,GGUCACGUCUCAAUCAACUCUAUCUCCAGGGAAAACCCUGGUAAACUCAACAGCUCGCAGUCAAG,-0.238
24,GGUCACGUCUCAAUCAACUCAAUCCCAGGAGUUUGCUCCUGUAUAUUCAACAGCUCGCAGUCAAG,0.0558
